In PubChem BioAssay (NCI) one finds TGI and GI50 data, which are given here for 38 compounds.

In the assay the test system is NCI-H322M lung. The assay is described as follows: NCI anticancer screen, dose series, 48 h.

Molecules are shown by their SMILES.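 Each compound was tested at five concentrations against cells in 96-well plates for 48 hours. GI50 is the concentration that inhibits growth by half. TGI: total growth inhibition.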 Bounds are passed on as bounds.

As to `Cc1ccc(NN=NCCCCN)cc1`, the TGI was more than 100 µM.

`CC(C)(C)OC(=O)c1cnc(Cl)cn1` gave a TGI of 97 µM.

Consider `O=C(Nc1cc(Cl)cc(Cl)c1)c1ccc(NC2=C(Cl)C(=O)N(Cc3ccc(Cl)cc3Cl)C2=O)cc1`, for which the GI50 was 5.54 µM and the TGI was found to be 28 µM.

For the compound `COc1ccc(/C=C\c2cc(OC)c(OC)c(OC)c2)cc1OC(=O)c1cccc(Cn2cc(CCOC(=O)[C@H](N)Cc3cn(C)c4ccccc34)nn2)c1`, the GI50 was 0.0394 µM and the TGI is more than 100 µM.

For the compound `CC(C)(C)c1nn(-c2ccccc2)c2c1C(=O)CSC(c1ccccc1Cl)N2` (stereo unspecified), the GI50 is 7.92 µM and the TGI worked out at 23.4 µM.

For the compound `CC(C)[C@H](CO)Nc1nc(Nc2ccc(C(=O)NCCNS(=O)(=O)c3cccc4c(N(C)C)cccc34)c(Cl)c2)c2ncn(C(C)C)c2n1`, the GI50 is 3.63 µM and the TGI was more than 100 µM.

Turning to `CCCCCCCCCc1cc(-c2ccc(C=O)s2)sc1-c1ccc(C=O)s1`, the TGI was more than 100 µM.

Regarding `Cn1nc2ccc3nccc(N4CCN(CCO)CC4)c3c2n1`, the TGI is more than 100 µM.

Take `CC(C)(C)N1C(C(=O)c2ccccc2)C1c1ccccc1` (stereo unspecified): the TGI was more than 100 µM.

`CC1=C2C[C@H]3[C@@H](CC[C@@H]4CC(NS(C)(=O)=O)CC[C@@]43C)[C@@H]2CC[C@@]2(C1)O[C@@H]1C[C@H](C)CN[C@H]1[C@H]2C` (stereo partly specified): the GI50 was 15 µM and the TGI turned out to be 29.2 µM.

`c1ccc(Cc2nc(Cc3n[nH]c(Cc4ccccc4)n3)n[nH]2)cc1` gave a TGI of more than 100 µM.

As to `O=C1CCCCCCCC/C=C\CC(c2ccco2)O1` (stereo unspecified), the GI50 was more than 100 µM and the TGI is more than 100 µM.

Take `CCC/C(=N/N=C(N)N)c1ccc(NC(=O)c2cc3cc(OC)ccc3[nH]2)cc1`: the GI50 is 13.6 µM and the TGI came out at 29.1 µM.

`COc1ccc(/C=C/C(=O)/C=C/c2ccc(OC)cc2)cc1` had a TGI of more than 100 µM.

Turning to `Nc1c2c(=O)[nH]c(=O)c2c(N)c2c(=O)c3ccccc3c(=O)c12`, the TGI was 2.75 µM.

As to `C=C(C)C1Cc2c(cc(O)c3c(=O)c4c(oc23)C(O)Oc2cc(OC)c(OC)cc2-4)O1` (stereo unspecified), the TGI is more than 10 µM.

In the case of `C/C(=N/Nc1nc2ccccc2n1C)c1ccccn1`, the GI50 was 0.0596 µM and the TGI stood at 29.9 µM.

As for `Cc1ccccc1C(=O)c1ccccc1O`, the TGI was more than 100 µM.

Take `COc1ccc(-n2nnnc2-c2c[nH]c3c(F)cc(F)cc23)cc1`: the GI50 is more than 100 µM and the TGI is more than 100 µM.

The compound `CC(=O)[C@@]1(O)CC[C@H]2[C@@H]3C[C@H](C)C4=CC(=O)CC[C@]4(C)[C@H]3[C@@H](O)C[C@@]21C` registered a TGI of more than 100 µM.

Take `COc1cc(/C=C2\C[C@H]3[C@@H]4CC=C5C=C(N6CCCC6)CC[C@]5(C)[C@H]4CC[C@]3(C)C2=O)cc(OC)c1OC`: the TGI is 22.3 µM.

Turning to `N#CC(C(=O)/C(=N/N)C(C#N)c1ccccc1)c1ccccc1` (stereo unspecified), the TGI was more than 100 µM.

`CC(C)c1cc(CN(C)C)c(O)c(C(C)(C)C)c1` yielded a TGI of more than 100 µM.

As for `N#CC(C(=O)CCC(=O)C(C#N)c1ccccc1)c1ccccc1` (stereo unspecified), the TGI was more than 100 µM.

In turn, `O=C1C=C(Sc2ccccc2)c2nccc3c2c1nc1ccccc13` yielded a TGI of 97 µM.

For the compound `Cn1c(/C=C(\C#N)c2ccccc2)nc2c(N3CCOCC3)nc(Cl)nc21`, the GI50 was 1.63 µM and the TGI was found to be 3.37 µM.

With `CC(C)(C)C(=O)C(C(=O)C(C)(C)C)C(=O)C(C)(C)C`, the TGI is more than 100 µM.

With `COC(=O)N1CCc2c(nc(N(C)CCO)[nH]c2=O)C1`, the TGI was more than 100 µM.

`Cc1nc(Nc2ccccc2Cl)sc1C(=O)CC(=O)C(=O)Nc1c(Cl)cccc1Cl` had a TGI of more than 100 µM.

With `CC(C)(C)c1cc(C2NCCO2)cc(C(C)(C)C)c1O` (stereo unspecified), the TGI is more than 100 µM.

`COc1cc2cc(Oc3ccc(NC(=O)Nc4cccc(C(F)(F)F)c4)cc3)c(C)nc2cc1OC`: the GI50 was 2.84 µM and the TGI turned out to be 16.6 µM.

Turning to `CC1(C)N=C(N)N=C(N)N1c1ccc(OCCCCOc2ccc(S(=O)(=O)F)cc2)c(Cl)c1`, the GI50 was 0.356 µM and the TGI turned out to be 23 µM.

`O=C1c2ccccc2C(=O)c2c(Nc3ccc4c5c(cccc35)C(=O)c3ccccc3-4)cccc21` gave a TGI of more than 100 µM.

On to `Oc1cc(Br)cc2cccnc12`, for which the TGI was more than 100 µM.

Take `O=C(Nc1cccc(Cl)c1)c1ccc(NC2=C(Cl)C(=O)N(Cc3ccccc3)C2=O)cc1`: the GI50 was 7.96 µM and the TGI is 22.9 µM.

The compound `BrC1=CC=C2NC=CC3=CC=NC1C32` (stereo unspecified) returned a TGI of more than 92.9 µM.

Consider `CN(C)c1ccc(/C=c2/c3ccccc3n3nc4ccccc4c23)cc1`, for which the TGI is more than 100 µM.

`CN(C)c1ccc(/C=C2\C[C@H]3[C@@H]4CCc5cc(OCCN6CCCC6)ccc5[C@H]4CC[C@]3(C)C2=O)cc1`: the TGI came out at 5.86 µM.
